# Test results published in ChEMBL document CHEMBL1157539, “Thousands of chemical starting points for antimalarial lead identification” (Nature, 2010).
# Whole data set: some 13,000 compounds, median “IFI” near 4, cut for the highest 2% near 17. This is one part of the list.
# Test: GSK_TCMDC: Inhibition Frequency Index (IFI). The number of non-kinase HTS assays where a compound showed > 50 % inhibition, expressed as a percentage of the number of such assays in which the compound was tested (-0 is zero)
# Assay type: functional
row,Structure (SMILES),IFI [%]
1,C=CCN1C(=O)c2[nH]nc(-c3cc(C)c(C)cc3O)c2C1c1cccc(Br)c1 (configuration not stated),4.65
2,CCN(CC)CCCC(C)Nc1c2ccccc2nc2ccc3ccccc3c12 (configuration not stated),0.73
3,CCCC(C)NC(=O)[C@H](CC1CCCCC1)NC(=O)c1ccc(O)c(-c2cccc(C(F)(F)F)c2)c1 (some centres not stated),2.99
4,CC(C)CN1CCN(CCNc2c3ccccc3nc3ccccc23)CC1,5.11
5,OCCN1CCN(Cc2ccc(-c3ccc(-c4nc5ccccc5[nH]4)cc3)cc2)CC1,6.86
6,CN1CCN(Cc2cccc(-c3ccc4c(Nc5ccc(F)cc5Cl)ccnc4c3)c2)CC1,5.84
7,COc1cc(Cc2cnc(N)nc2N)cc(OCCCS(=O)(=O)O)c1OC,1.52
8,COc1ccc2nccc([C@@H](O)CN3CCC(NCc4cc5ccccc5cn4)CC3)c2n1,3.33
9,Cc1c(C(=O)N2CCc3cc4nccc(N5CCN6CCC[C@H]6C5)c4cc32)cnn1-c1ccc(C#N)cc1,0.73
10,CC(C)CNC(=O)CN1C(=O)C(c2ccccc2)(c2ccccc2)N=C1N,1.16
11,Oc1ccc(Cl)cc1CN1CCCC(COC(c2ccc(F)cc2)c2ccc(F)cc2)C1 (configuration not stated),1.56
12,CCCCCCOc1ccc2ccccc2c1CNCCCCCCNCc1c(OCCCCCC)ccc2ccccc12,22.8
13,O=C(/C=C/c1ccc(Cl)c(Cl)c1)N1CCC(CCN2CCC(c3c[nH]c4ccncc34)CC2)CC1,1.48
14,COc1cccc2c1CCN(CCN1CCC(CNC(=O)c3ccc(-c4ccc(C#N)cc4)cc3)CC1)C2,10.8
15,CC1(C)[C@H]2CC[C@@H](CNc3nc(NCC(=O)Nc4ccc5ccccc5c4)nc(N4CCC(N5CCCC5)CC4)n3)[C@@H]1C2,4.96
16,CCc1nc2c(cnn2CC)c(NC2CCOCC2)c1CNC(=O)c1ccoc1C,1.85
17,COc1cc(C=CC(=O)N2CCC3(CC2)CC(=O)c2ccccc2O3)cc(OC)c1OC,0
18,CC(C)c1nc2c(N)nc(N)nc2nc1N,2.08
19,N#Cc1ccc(C(=O)NC2CCN(CCCCCNC(=O)/C=C/c3ccc(Cl)c(Cl)c3)CC2)cc1,3.17
20,O=S(=O)(c1ccc(OCc2ccc(Cl)cc2)cc1)c1cc2c(cc1OCc1ccccc1)CCN(C1CCC1)CC2,5.38
21,Cc1ccccc1-c1nc2c(CN3CCC(O)(c4ccccc4)CC3)c(O)ccc2[nH]1,3.96
22,CC(CN1CCN(C)CC1)C(=O)Nc1ccc(-c2ccc(-c3nc4ccccc4[nH]3)cc2)cc1 (configuration not stated),2.78
23,OCCNc1nc(Nc2ccc(Cl)cc2)nc2ccccc12,3.37

row,Structure (SMILES),IFI [%]
1,c1ccc(-c2nc(Nc3ccncc3)sc2-c2ccccc2)cc1,10.8
2,Fc1ccc2[nH]c3c(NCCN4CCCCC4)ncnc3c2c1,1.4
3,CSc1ccc(CN2CCC(NC(=O)c3ccc(-c4cccc(Cl)c4)s3)CC2)cc1,15.5
4,CCc1ccc(CN2CCC(CNC(=O)c3cc(-c4cccc(F)c4)cs3)C2)cc1 (configuration not stated),8.16
5,Cn1cncc1-c1ccc2ncnc(Nc3ccc(OCc4ccccc4)cc3)c2c1,1.45
6,COc1ccc(CN(C)CC(O)COc2ccc(NC(=O)c3cccc4c(=O)c5cccc(OC)c5[nH]c34)cc2)cc1OC (configuration not stated),9.93
7,COc1ccc(-c2cccc(NC(=O)c3ccc(F)cc3)c2)cc1CNC(C)C,5.94
8,Cc1c(CNCCN2CCCCC2)c(C(=O)O)c(C)n1Cc1ccc(Cl)cc1,1.41
9,COc1ccc(N2CCN(c3nc(N)c4cc(OC)c(OC)cc4n3)CC2C)cc1 (configuration not stated),7.41
10,CCOC(=O)c1ccc(NC(=O)N[C@@H](Cc2ccccc2)C(=O)NC2CCN(Cc3ccc(O)c(OC)c3)C2)cc1 (some centres not stated),2.92
11,COc1cc2nc(N3CCN(c4nc(N)c5cc(OC)c(OC)cc5n4)CC3)nc(N)c2cc1OC,3.52
12,COc1ccc2nccc([C@@H](O)CN3CCC(NC(=O)/C=C/c4ccc(F)c5ccccc45)CC3)c2c1,9.63
13,Cc1cc(NC(=O)Nc2ccc(C(C)C)cc2)c2ccccc2n1,6.76
14,COc1cccc2sc(Nc3nc(-c4ccccn4)cs3)nc12,11.1
15,Cc1cc(=O)c(-c2ccc(Oc3ccc(C(F)(F)F)cc3)cc2)c(C)n1O,9.49
16,NC1=NC(c2ccccc2)(c2ccccc2)C(=O)N1CCCCc1ccccc1,15.7
17,Cc1cc(N[C@@H](CC(C)C)C(=O)NCc2cccs2)nc(NCCc2ccc(F)cc2)n1,13.6
18,COc1cc(Cc2cnc(N)nc2N)ccc1OCc1cccc(Oc2ccccc2)c1,8.67
19,Cc1noc(C)c1-c1cccc(CNCc2ccc(-c3cccc(-c4nc5cccc(C)c5[nH]4)c3)cc2)c1,3.88
20,CC[C@H]1CN2CCc3cc(OC)c(OC)cc3[C@@H]2C[C@@H]1CC1=NCCc2c1[nH]c1ccc(OCc3ccccc3)cc21,2.22
21,Cc1cc(-c2cc3nc4c(c(O)n3n2)CCCC4)c(C)o1,0
22,CC(C)C[C@H](NC(=O)c1cc2ccccc2s1)C(=O)N[C@H]1CCN(Cc2ccc(OC[C@@H]3CCCN3C)c(Cl)c2)C1,6.67
23,COc1cccc(-c2cc3nc4c(c(NCCCn5ccnc5)n3n2)CCCC4)c1,7.83

row,Structure (SMILES),IFI [%]
1,COc1ccc(Nc2nccc(NCCNC(=O)c3cc4ccccc4s3)n2)cc1,6.15
2,O=C(Nc1ccon1)c1cc(-c2cccnc2)nc2ccc(Cl)cc12,0.93
3,Oc1c(C=Nn2cnnc2)sc2ccccc12,1.48
4,CCCCCCCN1CC[C@@H](CCCc2ccnc3ccc(OC)cc23)[C@@H](CNC)C1,10.8
5,Nc1nc(N)c2c(Cl)c(N3CCOCC3)ccc2n1,2.82
6,COc1ccc(Nc2nc(=Nc3ccccc3)nc(NN=Cc3cc(Cl)ccc3O)[nH]2)cc1,7.53
7,CN(c1ccc(NC(=O)Nc2cc(C(C)(C)C)on2)cc1)c1ccnc(NCCOC(=O)Nc2cc(C(C)(C)C)on2)n1,9.42
8,NC(=O)c1ccc(C(=O)Nc2cccc(-c3cccc(-c4nc5cc(C(F)(F)F)ccc5[nH]4)c3)c2)cc1,3.51
9,O=[N+]([O-])c1cccc(S(=O)(=O)N2CCN(CC(O)COc3ccc(-c4ccccc4)cc3)CC2)c1 (configuration not stated),0
10,O=C(/C=C/c1ccc(Cl)c(Cl)c1)NCCCCCCN1CCN(C(=O)Nc2ccc(OC(F)F)cc2)CC1,8.8
11,O=C(NCCN1CCCC1)c1cccc(-c2ccc(-c3nc4cc(F)ccc4[nH]3)s2)c1,5.41
12,O=C(NCCc1ccc(Cl)c(Cl)c1)[C@@H]1CCCN1C(=O)c1ccc(O)c(-c2cccc(C(F)(F)F)c2)c1,0.73
13,COc1cccc(Nc2nccc(NCC(O)c3cccc(C(F)(F)F)c3)n2)c1 (configuration not stated),8.74
14,OC(CNc1cccc(Cl)c1)Cn1c2ccc(Cl)cc2c2cc(Cl)ccc21 (configuration not stated),1.5
15,CCc1ccc(C2CCN(CCCCNC(=O)c3ccc(-c4ccc(C(F)(F)F)cc4)cc3)CC2)c(OCCO)c1,7.89
16,O=C(Cn1c(CCc2cccc(F)c2F)nc(=O)c2ccccc21)N(CCN1CCCC1)Cc1ccc(-c2ccc(C(F)(F)F)cc2)cc1,5.84
17,N=C(NCCc1ccc(Cl)c(Cl)c1)c1ccc2ccccc2c1,6.72
18,CCc1cccc(OCC2CCCN(c3ccc(C(=O)NC4CC4)cn3)C2)c1 (configuration not stated),3.92
19,Nc1ccc(Oc2ccc(Cc3cnc(N)nc3N)cc2)cc1,1.53
20,c1ccc(CCNCc2ccc(-c3cccc(-c4nc5ccccc5[nH]4)c3)cc2)nc1,6.54
21,Cc1ccccc1N1CCN(c2ccc(C(=O)Nc3ccccc3)cn2)CC1,8.33
22,CC1(C)N=C(N)N=C(N)N1OCCCOc1cc(Cl)c(Cl)cc1Cl,6.43
23,CC(C)N1CCN(CCCNc2c3ccccc3nc3ccccc23)CC1,2.94

row,Structure (SMILES),IFI [%]
1,O=C(C(=O)c1ccc(Nc2ccnc3cc(-c4ccccn4)ccc23)cc1)c1ccccc1,2.9
2,COCCNCc1cccc(-c2ccc3c(Nc4ccc(Oc5ccccc5)cc4)ccnc3c2)c1,6.62
3,COc1cc(C)nc2ccc(NC(=O)Nc3ccccc3[N+](=O)[O-])cc12,6.25
4,Cc1ccc(OCC2CCN(c3ncc(C(=O)NCCCN4CCCC4=O)cc3Cl)CC2)cc1,1.85
5,CCN1CCc2nc3ccccc3c(C(=O)Nc3ccc(C#N)cc3)c2C1,-0
6,COC(=O)c1cccc(CNCc2cccc(-c3ccc(-c4nc5cc(C(F)(F)F)ccc5[nH]4)cc3)c2)c1,5.94
7,CC(CN(C)C)C(=O)Nc1ccc(-c2ccc(-c3nc4ccccc4[nH]3)cc2)cc1 (configuration not stated),2.73
8,NC(=O)c1cccc(Nc2nccc(Nc3ccc(Oc4c(Cl)cccc4Cl)c(Cl)c3)n2)c1,6.57
9,Nc1ncc(-c2cc3ccccc3o2)c(N)n1,1.41
10,COc1cc(NC(=O)C(c2ccc(Cl)cc2)C(C)C)cc(OC)c1 (configuration not stated),2.27
11,Cc1c(-c2cccc(Br)c2)[nH]c2nc(N)nc(N)c12,3.52
12,N#Cc1cccc(NC(=O)Nc2ccc3c(c2)CCN(C2CCC2)CC3)c1,0.79
13,CNC(=O)NC1CCN(Cc2c(-c3cccs3)nc3ccccc3c2C(=O)N[C@@H](C)C2CCCCC2)CC1,1.48
14,CCCCCOc1ccc(N2C(N)=NC(N)=NC2(C)C)cc1,2.19
15,CCc1cccc2c(C#N)cn(CC(=O)NCCc3ccccc3)c12,0.95
16,CN1CCN(c2ccnc3ccc(NC(=O)Nc4c(Cl)cccc4Cl)cc23)CC1,-0
17,CC(CN(C)C)C(=O)Nc1cccc(-c2ccc(-c3nc4ccccc4[nH]3)s2)c1 (configuration not stated),0.92
18,CCn1ccc2c(N3CCCC3=O)cc(C(=O)N[C@@H](Cc3ccccc3)[C@H](O)CNC3CCCCC3)cc21,0.76
19,O=C1OC2(CCN(C(=O)c3ccc(-n4cnnn4)cc3)CC2)CN1Cc1ccc(Cl)c(Cl)c1,-0
20,N#Cc1cc([N+](=O)[O-])ccc1-n1nc(-c2cccc(Cl)c2)n(Cc2ccco2)c1=S,5.44
21,Cc1cc2nc(-c3ccc(OCC(=O)NCc4ccc(C(C)(C)C)cc4)cc3)[nH]c2cc1C,3.01
22,O=C(C=Cc1cn(-c2ccccc2)nc1-c1cccs1)N1CCN(c2ccncc2)CC1,14.6
23,COc1ccc(-c2cccc(NC(=O)c3cccc(Cl)c3)c2)cc1CN1CCCN(C)CC1,7.77
